The campaign covered roughly 50,000 compounds. About 800 (1.6%) showed an effect of 50% or more. The list shows a part of the results.
The molecules below were run against Bcl-2-like protein 10 (Homo sapiens) (UniProt Q9HD36) (assay: Phenotype converters, Bcl-B/TR3 peptide binding displacement, primary biochemical FP (AID 1240;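 note: 0% = Bcl-B with tracer peptide and DMSO and 100% = tracer peptide lacking Bcl-B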)). Conditions: GST-Bcl-B / FITC-TR3 peptide fluorescence polarization; stronger effect = higher value; compound at 3.75 mg/L.
UniProt Q9HD36, sequence (Q9HD36 whole entry, looked up): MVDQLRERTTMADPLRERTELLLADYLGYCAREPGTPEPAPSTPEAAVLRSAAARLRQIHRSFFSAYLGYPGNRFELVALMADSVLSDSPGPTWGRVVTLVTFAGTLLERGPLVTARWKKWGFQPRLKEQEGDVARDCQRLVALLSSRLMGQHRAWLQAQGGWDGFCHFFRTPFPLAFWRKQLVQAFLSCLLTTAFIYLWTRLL
CC(=Nc1ccccc1C(F)(F)F)C1=C(O)c2ccccc2C1=O gave a displacement of -6.2%. With COc1ccccc1OCC(=O)NCc1cccnc1 the displacement was -4.2%. O=c1cc(-c2ccccc2)c2ccc(OCc3ccccc3F)cc2o1 showed a displacement of 9.8%. N#C/C(=C\c1ccc(-c2cccc([N+](=O)[O-])c2)o1)C(=O)Nc1ccccc1O gave a displacement of 3.9%. CC1=C(C(=O)OCCc2ccccc2)C(c2ccc(Br)cc2)NC(=O)N1 (stereo unspecified) gave a displacement of -2.6%. O=C1CC(N2CCN(c3ccccc3F)CC2)C(=O)N1c1ccccc1 (stereo unspecified) showed a displacement of -7.4%. Work on O=C1C(=O)N(CN2CCN(CN3C(=O)C(=O)c4ccccc43)C2)c2ccccc21 yielded a displacement of -0.3%. In the case of Cc1ccc(-c2nn3c(=O)cc(N4CCN(c5ccc(C(F)(F)F)cc5[N+](=O)[O-])CC4)nc3s2)cc1, the displacement was 13.6%. CCOC(=O)CSc1nnc(CCCN2C(=O)c3cccc4cccc(c34)C2=O)n1-c1ccccc1 was tested, and the displacement was 3.5%. CCOC(=O)c1sc(NC(=O)c2cccc3ccccc23)nc1C showed a displacement of 1.6%. Work on O=C(Nc1ccc(Br)c(Cl)c1)c1ccccc1Cl yielded a displacement of -1.2%. CC(C)c1ccc(NC(=O)Cc2cccc3ccccc23)cc1 was tested, and the displacement was -6.4%. In the case of CCOC(=O)/C(C#N)=C1\C(=O)Nc2ccccc21, the displacement was 4.1%. Molecule CCOC(=O)/C(C#N)=C/C1=Cc2c(OC)c3ccccc3n2C1=O has a displacement of 39.7%. CC1=C(C(=O)Nc2ccc(C)cc2)C(c2ccccc2Br)NC(=O)N1 (stereo unspecified) showed a displacement of 8.2%. Oc1ccc(Br)cc1/C=N\N1CCN(c2ccccc2)CC1 gave a displacement of -20.9%. Molecule O=C(NCc1cccs1)c1nn2c(c1Cl)NC(c1ccccc1)CC2C(F)(F)F (stereo unspecified) has a displacement of 0%. In the case of Cc1cccc(NC(=O)/C=C/c2ccc(F)cc2)c1, the displacement was 8.3%. Work on O=Cc1cn(-c2ccccc2)nc1-c1cccs1 yielded a displacement of 1.8%. In the case of c1ccc(OCC2=NNC(COc3ccccc3)=NN2)cc1, the displacement was 9.1%. With COc1ccccc1N1C(=O)CC(N2CCN(Cc3ccc4c(c3)OCO4)CC2)C1=O (stereo unspecified) the displacement was -3.5%. For CCOC(=O)C1=C(C)N=C2c3ccccc3C(=O)C2C1c1ccc(C)cc1 (stereo unspecified), the displacement was -5.3%. Cc1ccc(N2C(=O)C=CC2=O)cc1[N+](=O)[O-] was tested, and the displacement was 12.7%. With COc1ccc(N2C(=O)c3ccccc3NC2c2c(F)c(F)c(F)c(F)c2F)cc1 (stereo unspecified) the displacement was 4.6%. With Nc1nnc(SCC(=O)NCC(=O)c2ccccc2)s1 the displacement was -6.2%. O=C(Nc1ccc(Cl)cc1)Nc1nnc(-c2ccccc2Cl)s1 gave a displacement of 11.8%. Work on CCOP(=O)(OCC)C(OC(N)=O)c1ccc([N+](=O)[O-])cc1 (stereo unspecified) yielded a displacement of -9.1%. O=C(c1ccccc1)N1CCN(c2ccc([N+](=O)[O-])cc2Cl)CC1 gave a displacement of -4.9%. Molecule COc1ccc2nc(/N=C(/N)NC(=O)Cc3ccc(Cl)cc3)nc(C)c2c1 has a displacement of 11.6%. C=CCN1C(=O)/C(=C/c2ccc(OCC)cc2O)SC1=S was tested, and the displacement was -3%. COc1ccc2oc(/C=C/N(C)C)c(C(=O)c3ccccc3)c2c1 was tested, and the displacement was -12%. N#CC(C(N)=O)=C1CCC2(CC1)OCCCCO2 gave a displacement of -0.5%. Work on Cc1cc(C)c(S(=O)(=O)Nc2c(C)cccc2C)c(C)c1 yielded a displacement of -1.6%. Work on CC1(C)CC(=O)C2=C(C1)c1cc3ccccc3cc1NC2c1cccc([N+](=O)[O-])c1 (stereo unspecified) yielded a displacement of 11.9%. With Cc1cc(=O)[nH]c(NCc2ccccc2)n1 the displacement was -7.4%. CCCC(=O)Nc1ccc(Cc2ccc(NC(=O)CCC)c(C(=O)O)c2)cc1C(=O)O showed a displacement of 9.1%. In the case of CCCCn1c(=N)n(CC(O)c2ccc(Cl)cc2)c2ccccc21 (stereo unspecified), the displacement was -4.6%. With O=C(NN=C1CCCC1)c1ccc(O)cc1 the displacement was 0.7%. CCN1C(=O)/C(=C\C=C\c2ccccc2[N+](=O)[O-])SC1=S showed a displacement of -14.2%. Cc1ccc(N2C(=O)CC(NCCN3CCOCC3)C2=O)cc1 (stereo unspecified) gave a displacement of 3.9%. O=C(NN=C1CCCC1)c1ccncc1 was tested, and the displacement was -1.9%. COc1ccc(CCN=CC2=C(O)CC(C)(C)CC2=O)cc1OC gave a displacement of 3.2%. Cc1cc(OCC(=O)Nc2cccc([N+](=O)[O-])c2)cc(C)c1Cl gave a displacement of 7.8%. Cc1ccc(NC(=O)c2cc3cc([N+](=O)[O-])ccc3oc2=O)cc1 gave a displacement of 13.5%. Work on Cc1cc(C)cc(N2C(=O)NC(=O)/C(=C\c3cccc(O)c3)C2=O)c1 yielded a displacement of 4%. Work on Cc1cc(Nc2ccccc2)nc(N)n1 yielded a displacement of -12.9%. Molecule Cc1ccc(S(=O)(=O)N/N=C/c2ccc(-c3ccc([N+](=O)[O-])cc3C)o2)cc1 has a displacement of 52.8%. For CCCCOc1ccccc1C1C(C(=O)OC)=CNC=C1C(=O)OC, the displacement was 7.6%. Work on Cc1cccc(NC(=O)C2CC(=O)N(c3ccc(Br)cc3)C2)n1 (stereo unspecified) yielded a displacement of 14.8%. For COc1cccc(NC(=O)CCN2C(=O)/C(=C/c3ccc(C)cc3)SC2=S)c1, the displacement was 39.1%. CCCCCOC(=O)CSc1nnc(-c2ccccc2)o1 gave a displacement of 5.8%. O=C(COc1ccc(Cl)cc1Cl)Nc1ccc(-c2nc3ccccc3s2)c(O)c1 gave a displacement of 33.8%. In the case of CCOc1ccc(-n2c(C)cc(C=O)c2C)cc1, the displacement was 48.6%. CC(=O)Oc1ccc2ccccc2c1C(NC(=O)Cc1ccccc1)c1ccc([N+](=O)[O-])cc1 (stereo unspecified) gave a displacement of -11.5%. In the case of O=C(c1ccccc1O)N(Cc1ccccc1)c1ccccn1, the displacement was 0.4%. Cc1ccc(OCCNC(=O)c2cccc3ccccc23)cc1 showed a displacement of 13.8%. Molecule CC(C)C1C(C#N)=C(N)Oc2n[nH]c(-c3ccccc3)c21 (stereo unspecified) has a displacement of -9.1%. For Cc1cc(C)c(NC(=O)C2C3CCC4C(CCC32)C4(Cl)Cl)c(C)c1 (stereo unspecified), the displacement was 4.3%. With CN(C)c1cccc(C(=O)NCC2CCCO2)c1 (stereo unspecified) the displacement was 11.8%. Cc1ccc(NCC(=O)N=Nc2c(O)[nH]c(=O)[nH]c2=O)cc1 gave a displacement of 12.7%. In the case of CC(C)(C)c1cc(Br)ccc1OCC(=O)Nc1ccccc1[N+](=O)[O-], the displacement was 5.9%. In the case of CC(NS(=O)(=O)c1ccc2c(c1)OCCO2)C(=O)O (stereo unspecified), the displacement was 12.3%. In the case of O=C(O)CCC(=O)N1N=C(c2ccc(Br)cc2)CC1c1cccs1 (stereo unspecified), the displacement was 14.4%. With O=C(Nc1cc(F)c(F)cc1Cl)OCc1cccc([N+](=O)[O-])c1 the displacement was -16.2%. Work on C=CSC1=C(C#N)C(c2cccc3ccccc23)CC(=O)N1 (stereo unspecified) yielded a displacement of -0.6%. Work on CCN1CCn2c3c(c4cc(C)ccc42)CCCC31 (stereo unspecified) yielded a displacement of 2.3%. COc1cccc(C(=O)Nc2cc(OC)ccc2OC)c1 showed a displacement of 3.4%. Molecule COc1ccc(C2CC3CC(c4ccccc4)N2O3)cc1 (stereo unspecified) has a displacement of 2.6%. Molecule NC(=O)OC(c1ccccc1[N+](=O)[O-])P(=O)(c1ccccc1)c1ccccc1 (stereo unspecified) has a displacement of -2.1%. Work on CC(=O)OCc1c(OC(C)=O)ccc2c([N+](=O)[O-])c(C)n(-c3ccc(C)cc3)c12 yielded a displacement of -6.6%. Cc1ccc(CNC(=O)c2ccc(Cl)c([N+](=O)[O-])c2)cc1 gave a displacement of 6.1%.
